From the supplement of paper PMC10441789
The list shows a part of the results. Antibody binding of pooled human sera (four to six donors per pool; dilution not stated) to peptides of the Trypanosoma cruzi antigen TSSA on microarrays. Quantile-normalised fluorescence in arbitrary units, mean of duplicate arrays; higher = more binding. No active / inactive call. The uninfected pools are read here as the healthy donors of the same country. The strongest signals lie near the top of the scale (about 60,000).

Legend:
Assay in all cases: antibody binding signal (normalised fluorescence) (arbitrary fluorescence units); higher = stronger serum antibody binding to peptide
[1] = tested on: pooled sera of chronic Chagas disease patients, Argentina
Experimental: (§1)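 Microarray of overlapping 15-residue peptides of the four Trypanosoma cruzi TSSA reference variants and 8- to 13-residue peptides of TSSAII 24-62, probed with one serum pool per country.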

[2] = tested on: pooled sera of chronic Chagas disease patients, Bolivia
Experimental: as §1

[3] = tested on: pooled sera of chronic Chagas disease patients, Brazil
Experimental: as §1

[4] = tested on: pooled sera of chronic Chagas disease patients, Colombia
Experimental: as §1

[5] = tested on: pooled sera of chronic Chagas disease patients, Mexico
Experimental: as §1

[6] = tested on: pooled sera of chronic Chagas disease patients, USA
Experimental: as §1

[7] = tested on: pooled sera of uninfected people, Argentina
Experimental: as §1

[8] = tested on: pooled sera of uninfected people, Bolivia
Experimental: as §1

[9] = tested on: pooled sera of uninfected people, Colombia
Experimental: as §1

[10] = tested on: pooled sera of uninfected people, Mexico
Experimental: as §1

[11] = tested on: pooled sera of uninfected people, USA
Experimental: as §1

| Sequence | antibody binding signal [1] | antibody binding signal [2] | antibody binding signal [3] | antibody binding signal [4] | antibody binding signal [5] | antibody binding signal [6] | antibody binding signal [7] | antibody binding signal [8] | antibody binding signal [9] | antibody binding signal [10] | antibody binding signal [11] |
| --- | --- | --- | --- | --- | --- | --- | --- | --- | --- | --- | --- |
| PPSGTENKPA | 53500 | 50700 | 49900 | 588 | 12900 | 29800 | 7490 | 2150 | 862 | 426 | 1190 |
| TTANGGSTISTPPSG | 226 | 266 | 294 | 145 | 200 | 159 | 986 | 214 | 1270 | 177 | 155 |
| SQPGASSGEAEA | 237 | 133 | 8220 | 111 | 93.2 | 90.6 | 137 | 103 | 102 | 100 | 63.9 |
| ATGEAPSQPG | 19100 | 31000 | 39100 | 829 | 333 | 14200 | 203 | 339 | 86.6 | 145 | 105 |
| TPPSGTEN | 38700 | 31500 | 26200 | 71.8 | 293 | 172 | 296 | 147 | 102 | 92.9 | 105 |
| EAPSQPGAS | 4780 | 32900 | 1960 | 111 | 80.6 | 318 | 490 | 994 | 572 | 159 | 1230 |
| PGTDKKTAAGGTPSP | 36400 | 9710 | 16200 | 45900 | 45400 | 29900 | 426 | 172 | 273 | 491 | 177 |
| ACTTANGGSTISTPP | 236 | 226 | 294 | 162 | 140 | 136 | 426 | 178 | 461 | 140 | 418 |
| ATGEAPSQPGAS | 13800 | 39800 | 39100 | 721 | 974 | 12400 | 536 | 1140 | 380 | 239 | 1050 |
| QPGASSGEAEASSNK | 331 | 1910 | 8870 | 589 | 1180 | 1820 | 245 | 295 | 126 | 1980 | 1760 |
| GGSTSSTPPSGTE | 9990 | 265 | 10800 | 153 | 164 | 101 | 162 | 103 | 95.5 | 136 | 63.8 |
| SQPGASSGEAE | 261 | 119 | 8210 | 161 | 124 | 112 | 148 | 127 | 208 | 133 | 102 |
| TPPSGTENKPATG | 47800 | 48400 | 52200 | 2160 | 5540 | 33700 | 8860 | 2420 | 991 | 840 | 948 |
| KKTAAGGTPSPSGAS | 263 | 218 | 326 | 4250 | 316 | 1790 | 215 | 111 | 147 | 84.2 | 238 |
| SGTENKPATGEAPSQ | 43300 | 51900 | 51700 | 380 | 507 | 41600 | 1350 | 1190 | 142 | 315 | 176 |
| TENKPATGEA | 41500 | 27700 | 31800 | 203 | 569 | 17500 | 354 | 716 | 135 | 322 | 382 |
| TSSTPPSGTENKP | 56100 | 47700 | 51300 | 349 | 8590 | 39200 | 8950 | 895 | 797 | 575 | 804 |
| GGSTSSTPPSGTENK | 51100 | 43000 | 48900 | 435 | 6870 | 28200 | 2880 | 550 | 623 | 810 | 453 |
| PATGEAPSQP | 46600 | 46800 | 45900 | 120 | 194 | 26700 | 721 | 121 | 119 | 110 | 120 |
| GGSTSSTPP | 261 | 257 | 276 | 230 | 218 | 298 | 200 | 219 | 137 | 138 | 90.3 |
| SGASSGEAEASSNKN | 216 | 2180 | 4030 | 439 | 1270 | 1420 | 220 | 219 | 121 | 1390 | 878 |
| GSTSSTPPSG | 391 | 251 | 364 | 288 | 273 | 144 | 245 | 255 | 113 | 194 | 119 |
| TPPSGTENKPATGEA | 46800 | 41600 | 45400 | 1070 | 3720 | 30700 | 8570 | 1280 | 542 | 655 | 729 |
| TEKKAAAGEAPSPSG | 728 | 492 | 2330 | 707 | 559 | 12100 | 172 | 238 | 129 | 183 | 216 |
| TGEAPSQPGASSGEA | 8860 | 26200 | 17400 | 135 | 97 | 2250 | 278 | 107 | 83.1 | 126 | 78.8 |
| GEAPSQPG | 7410 | 25200 | 12800 | 176 | 138 | 1340 | 108 | 105 | 81.8 | 107 | 112 |
| SGTENKPATGE | 38700 | 29500 | 38300 | 249 | 582 | 22600 | 1170 | 1430 | 164 | 315 | 169 |

| Sequence | antibody binding signal [1] | antibody binding signal [2] | antibody binding signal [3] | antibody binding signal [4] | antibody binding signal [5] | antibody binding signal [6] | antibody binding signal [7] | antibody binding signal [8] | antibody binding signal [9] | antibody binding signal [10] | antibody binding signal [11] |
| --- | --- | --- | --- | --- | --- | --- | --- | --- | --- | --- | --- |
| STSSTPPSGT | 242 | 212 | 407 | 418 | 178 | 116 | 147 | 122 | 98 | 224 | 70.5 |
| TSSTPPSGTENKPAT | 48400 | 52900 | 54700 | 1700 | 5960 | 43100 | 6490 | 1170 | 754 | 461 | 974 |
| PGASSGEAE | 906 | 110 | 7910 | 134 | 140 | 111 | 180 | 110 | 220 | 101 | 84.9 |
| SPSGASSGEAEASSN | 214 | 103 | 1380 | 183 | 502 | 1480 | 146 | 118 | 114 | 130 | 88.7 |
| TGEAPSQPG | 12600 | 27900 | 21700 | 193 | 119 | 3000 | 156 | 94.3 | 75.3 | 105 | 101 |
| NGGSTSSTP | 551 | 285 | 463 | 421 | 169 | 299 | 239 | 198 | 138 | 145 | 93.1 |
| GSTSSTPPS | 247 | 251 | 275 | 228 | 193 | 147 | 199 | 216 | 105 | 118 | 78 |
| PSQPGASS | 173 | 267 | 561 | 139 | 550 | 211 | 179 | 221 | 156 | 1490 | 222 |
| APSQPGAS | 857 | 610 | 1420 | 513 | 9310 | 359 | 642 | 1640 | 1140 | 3550 | 1840 |
| TANGGSTSSTPPGTD | 255 | 530 | 414 | 137 | 235 | 158 | 118 | 123 | 123 | 106 | 95.1 |
| ASSGEAEASS | 105 | 107 | 183 | 453 | 183 | 85.5 | 146 | 124 | 89.7 | 94.2 | 95 |
| PSQPGASSGEAEA | 303 | 193 | 8580 | 110 | 174 | 126 | 184 | 118 | 106 | 111 | 99.4 |
| TENKPATGE | 40500 | 26300 | 33600 | 206 | 616 | 19800 | 427 | 940 | 98.4 | 139 | 146 |
| GASSGEAEA | 163 | 124 | 2450 | 137 | 117 | 64.9 | 145 | 120 | 135 | 90.3 | 110 |
| GEAPSQPGASS | 7940 | 45600 | 9890 | 96.9 | 106 | 1340 | 206 | 166 | 115 | 156 | 141 |
| QPGASSGEAEA | 421 | 128 | 7870 | 128 | 123 | 88 | 141 | 108 | 91.4 | 90.8 | 73.4 |
| ANGGSTISTPPSGTD | 1730 | 3360 | 5920 | 2360 | 1720 | 1420 | 257 | 240 | 183 | 207 | 82.2 |
| SSTPPSGTEN | 36800 | 38100 | 28500 | 109 | 159 | 242 | 320 | 155 | 117 | 103 | 167 |
| NKPATGEAPSQ | 52000 | 53600 | 53900 | 360 | 232 | 42600 | 1020 | 634 | 158 | 315 | 181 |
| ACTTANGGSTSSTPP | 327 | 300 | 704 | 232 | 312 | 187 | 193 | 239 | 308 | 214 | 485 |
| PSQPGASSGE | 536 | 287 | 8620 | 95.5 | 308 | 164 | 80.4 | 115 | 111 | 555 | 90.5 |
| PSGTENKPA | 50000 | 36600 | 49400 | 2060 | 8250 | 17500 | 2530 | 1890 | 872 | 702 | 1080 |
| GSTSSTPP | 281 | 214 | 319 | 179 | 189 | 135 | 227 | 197 | 98.7 | 107 | 95 |
| TPPSGTENKP | 50100 | 49200 | 51200 | 307 | 8240 | 27400 | 7780 | 901 | 805 | 418 | 759 |
| GGSTSSTP | 501 | 168 | 370 | 291 | 215 | 343 | 194 | 181 | 111 | 116 | 101 |
| NKPATGEAPS | 45300 | 46900 | 46300 | 331 | 172 | 46500 | 912 | 691 | 168 | 249 | 136 |
| APSQPGASSGEA | 2220 | 1540 | 7540 | 265 | 2200 | 180 | 156 | 108 | 117 | 1250 | 118 |
